Assay results published in the BET-seq Pho4 binding data (Le et al. 2018).
The other results are listed elsewhere or left out. Values were computed here from the reads of four pooled replicates and scatter widely.

Molecular target: T1, Pho4 (S. cerevisiae) (UniProt P07270)
T1 sequence: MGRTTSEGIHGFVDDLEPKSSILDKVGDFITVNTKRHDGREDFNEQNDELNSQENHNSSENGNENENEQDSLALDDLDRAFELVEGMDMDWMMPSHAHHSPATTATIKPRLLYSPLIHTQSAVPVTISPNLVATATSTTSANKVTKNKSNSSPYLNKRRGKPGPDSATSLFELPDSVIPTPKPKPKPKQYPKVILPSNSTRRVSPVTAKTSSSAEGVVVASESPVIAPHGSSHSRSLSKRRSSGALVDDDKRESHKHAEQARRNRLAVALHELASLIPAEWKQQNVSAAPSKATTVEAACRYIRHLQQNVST
Assay: relative binding free energy (BET-seq); higher = weaker binding
Details: reference: library average

Sequence | relative binding free energy [kcal/mol]
CGCGTCACGTGGGGTA | -0.1
TTAATCACGTGAAGTG | 0.23
AATACCACGTGTGGGG | -0.08
TGTTGCACGTGGTCCT | -0.12
GGGCGCACGTGATTGC | 0.24
GTTAACACGTGCTTGT | 0.01
GGAGACACGTGGTGCA | 0.03
GGGGGCACGTGGGCTG | -0.24
CTAATCACGTGGGTTT | 0.12
AGCTTCACGTGTTGAT | 0.1
GTGGACACGTGTAATG | 0.26
TGGATCACGTGCTTTT | 0.1
CGTCTCACGTGTGTGT | 0.18
TGCTTCACGTGTCGTT | 0.19
TCCGGCACGTGGGTTG | -0.12
GGGTACACGTGAGGCC | 0.44
GCGCGCACGTGGGGGC | -0.21
TTGTACACGTGAGTGG | 0.19
CATGTCACGTGGTGGC | -0.07
TGATGCACGTGTGAAT | 0.08
GGGCGCACGTGATGTG | 0.08
TGTTGCACGTGTCTAA | 0.11
TGCGTCACGTGTCGGG | 0.01

Sequence | relative binding free energy [kcal/mol]
GCAGACACGTGGGTTG | -0.1
ATTATCACGTGACTTG | 0.15
AGGGACACGTGTTAAG | -0.06
GTTGGCACGTGGTCTA | -0.03
AGGAACACGTGGGACG | 0.01
TATGCCACGTGTGGTT | -0.05
GTCGACACGTGGTGGC | 0.12
TTGCGCACGTGTGGTT | 0.03
TTTGACACGTGAGGGC | 0.23
GACTGCACGTGTCGGG | 0.12
TAAGGCACGTGGGGCG | -0.24
TTGTACACGTGTAGAA | 0.27
ATGGGCACGTGGTAGC | -0.17
TTTTGCACGTGTAAAT | 0.2
GAGGGCACGTGAGTAC | 0.16
ATCATCACGTGTATGG | 0.11
CTGTGCACGTGAGTGG | 0.19
CTTGGCACGTGTGTTA | -0.1
CAGAGCACGTGGTTTT | 0.02
TCGATCACGTGATGGT | 0.29
CATTTCACGTGGGGAG | 0.18
TGGTCCACGTGGGGTT | -0.14
AGTTACACGTGAAATT | 0.29

Sequence | relative binding free energy [kcal/mol]
CCTATCACGTGGGGTT | 0
TTAGTCACGTGCTAGC | 0.2
GGTGTCACGTGGTATT | 0.12
TTGGCCACGTGTTTGC | -0.12
GAGTACACGTGGAGGG | 0.13
CTTAGCACGTGGGTGT | -0.15
ATTAACACGTGGTTAA | -0.03
TTGCTCACGTGGGTGT | 0.04
TTGGCCACGTGGGTTT | -0.09
TTATCCACGTGTTGGG | -0.02
TAGGACACGTGCTAGG | 0.06
GAGGTCACGTGGGGGA | 0.01
TGGTACACGTGCGGAA | 0.09
GGGTTCACGTGGGCAA | 0.17
ATGTTCACGTGGTGTG | 0.23
GGAGTCACGTGGTACA | 0.04
GGAATCACGTGAGTGA | 0.18
CTGTTCACGTGTTGGA | 0.34
CTAAGCACGTGGAGTG | -0.15
ATGGTCACGTGCGATA | 0.11
GCGGTCACGTGTGGTA | 0.35
TTGGCCACGTGATATG | 0.01
GTTATCACGTGTAGTT | 0.21

Sequence | relative binding free energy [kcal/mol]
TCGGTCACGTGTACGG | 0.04
GGTGTCACGTGTGAAT | 0.21
TGAGTCACGTGACTTG | 0.17
AGAATCACGTGGTTGA | 0.09
TTCATCACGTGGGCTG | 0.01
TGGCTCACGTGGCGGT | 0.18
TTTGACACGTGGATGA | 0.04
GGTGTCACGTGTATGT | 0.13
ATCGTCACGTGGAGTA | 0.07
GAATACACGTGAAGGT | 0.41
ATTCTCACGTGATGGT | 0.28
GAGGTCACGTGTAGAA | 0.31
TGAAGCACGTGGTGTC | -0.11
AAAGGCACGTGGTTGC | -0.1
ACAGGCACGTGTTGTG | -0.14
GTTGGCACGTGTTGTG | 0
AACGGCACGTGGGAGT | -0.15
TACTGCACGTGAAGGT | 0.13
CTATACACGTGGGTTT | -0.15
TTCGTCACGTGGGTCG | -0.11
AGTGCCACGTGTAGGG | -0.13
GTTTTCACGTGAGTTG | 0.45
CGGGCCACGTGGGGGT | -0.28

Sequence | relative binding free energy [kcal/mol]
TGTGTCACGTGTGTTA | 0.06
GTGTGCACGTGCAGGA | 0.06
TATTGCACGTGATAAG | 0.13
TTCGGCACGTGGGTGA | -0.13
AGGAGCACGTGTCGGG | -0.1
AGTGGCACGTGCTTCG | 0.04
TTAAACACGTGGGAAA | 0.07
GGAGTCACGTGTTATT | 0.16
AAAAGCACGTGATGGT | -0.06
CGTGGCACGTGCGGGT | -0.32
TAGTACACGTGGGGGC | -0.11
GTGGTCACGTGGCGGG | 0.17
TATAGCACGTGGATGT | -0.07
GGTCGCACGTGGAGAT | 0.01
GAGGGCACGTGATAGT | -0.05
TATTACACGTGCTTTA | 0.01
TGCTACACGTGATTTA | 0.38
GCTGGCACGTGAGGAT | 0.05
GGGATCACGTGTAAGG | 0.21
GTGGACACGTGATTAG | 0.24
CGTTTCACGTGTTGGC | 0.4
GTGGTCACGTGATACT | 0.4
GTTATCACGTGGGTGC | -0.09
